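Growth conditions: 96-well plates. Treatment: test compound, 48 hours, 5 concentrations. Analysis: linear interpolation between bracketing concentrations; unreached endpoints set to highest concentration. GI50 = concentration required for 50% inhibition of growth.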 Calls of active or inactive are those of the source. Cut-off read from the data, not from the text of the source: active = GI50 up to about 1.1 µM and inactive = higher.

The record followed here is ChEMBL document CHEMBL1201862, “PubChem BioAssay data set” (2004).

This assay deals with NCI-H322M. Put plainly: NCI tumour cell line growth inhibition, 48 h.
With `C=C1C(=O)O[C@@H]2C[C@@H](C)[C@@H]3C=CC(=O)[C@@]3(C)[C@@H](OC(=O)CCCC(=O)O[C@H]3[C@@H]4C(=C)C(=O)O[C@@H]4C[C@@H](C)[C@@H]4C=CC(=O)[C@]43C)[C@H]12`, the GI50 is active: 0.991 µM. `Cc1ccccc1C1OC1C(=O)c1ccccc1N` (centres undefined): the GI50 was inactive: 72.9 µM. In the case of `COc1ccc(CCN2C(=O)C=CC2=O)cc1OC`, the GI50 was inactive: 17.7 µM. Consider `O=C(O)C1C2OC(C(Br)C2Br)C1C(=O)O` (centres undefined), for which the GI50 was inactive: > 100 µM.

On to `COc1cc(Nc2nc3c(N)cc(C(F)(F)F)cc3nc2-c2ccccc2)cc(OC)c1OC`, for which the GI50 is inactive: 32.9 µM. `OC(C1=C/C(=C\c2ccncc2)c2ccccc21)c1ccncc1` (centres undefined): the GI50 is inactive: 14.4 µM. On to `C(=C\c1ccc2ccccc2c1Nc1ccccc1)/c1ccccc1`, for which the GI50 was inactive: 56.4 µM. With `c1ccc2oc(-c3ccc(-c4nc5ccccc5o4)c4c3CC4)nc2c1`, the GI50 was inactive: > 100 µM. With `CC1(C)CC2=C(Sc3ccccc3N2)C(=O)C1C(=O)C(=O)Nc1cccc([N+](=O)[O-])c1` (centres undefined), the GI50 is inactive: > 100 µM.

With `C=C(C)C1CCC2(C)CC1c1c(c(C)cc3c1[nH]c1ccccc13)O2` (centres undefined), the GI50 was inactive: > 25 µM. In the case of `O=C(CC1C(=O)Nc2ccccc2S1(=O)=O)Nc1cccc(Cl)c1` (centres undefined) it was inactive: 34.7 µM. In the case of `Fc1cc(F)c(F)c(S)c1F`, the GI50 was inactive: > 100 µM. In the case of `COC1C(OC(=S)Nc2ccccc2)c2ccccc2N1C(C)=O` (centres undefined) it was inactive: > 100 µM; in that of `CC(C)OC(=O)C1(C(C)C)CCc2ccc(C(=O)CCC(=O)O)cc21` (centres undefined), inactive: > 100 µM; in that of `COc1cccc(CCn2c(N)c(-c3ccccc3)c3ccc([N+](=O)[O-])cc3c2=O)c1`, inactive: 3.02 µM. As to `COc1ccc(CCNC(=O)CCCCCO)cc1OC`, the GI50 is inactive: > 100 µM.

As for `C[C@@H]1CCC2[C@@H](C)[C@H](O[C@H]3O[C@@H]4O[C@@]5(C)CCC6[C@H](C)CCC([C@H]3C)[C@]64OO5)O[C@@H]3O[C@@]4(C)CCC1[C@@]23OO4` (some centres undefined), the GI50 is inactive: 5.71 µM. Turning to `Cn1nc2ccc3nccc(NCCNCCO)c3c2n1`, the GI50 was inactive: 28.1 µM. Regarding `Cc1cc(O)c2c3c1C(=O)Oc1c(CO)c(O)c(C(=O)O)c(c1O3)C=NN=Cc1c3c(c(CO)c(O)c1C(=O)O)OC(=O)c1c(C)cc(O)c(c1O3)C=NN=C2`, the GI50 is inactive: > 100 µM.

As for `COc1cc(/C=C2\N=C(c3ccccc3)N(c3nc4c(OC)ccc(OC)c4s3)C2=O)cc(OC)c1OC`, the GI50 was inactive: > 100 µM. With `CCCCCCCC1(N=[N+]=[N-])C(=O)Nc2ccccc2C1=O` (centres undefined), the GI50 was inactive: 17.4 µM.

Take `Cc1ccc(C)c2c1C1CCCCC3(OCCCO3)C21O` (centres undefined): the GI50 was inactive: > 100 µM. Take `CN1C(=O)N(c2nc3ccccc3[nH]2)C(C)(C)C1=O`: the GI50 was inactive: > 100 µM.

Consider `c1ccc(-c2nc3ccccc3n3nnnc23)cc1`, for which the GI50 is inactive: > 100 µM. As to `COC(=O)CSC(=S)Nc1nnc(NC(=S)SCOC(C)=O)n1C(=S)SCC(=O)OC`, the GI50 was inactive: > 100 µM.

Take `O=C(Cn1c2ccc(Br)cc2c2nc3ccccc3nc21)NNC(=S)NC1CCCCC1`: the GI50 is inactive: 21.9 µM.

Consider `Cn1c(=O)ccc2cc(C(=O)c3ccccc3)ccc21`, for which the GI50 is inactive: 63.5 µM. Turning to `CCOC(=O)Nn1c(CC#N)nnc1Cc1ccccc1`, the GI50 is inactive: > 100 µM. Turning to `O=c1[nH]c2[nH]c(-c3ccc(Br)cc3)cc2c2ccccc12`, the GI50 is inactive: 64.1 µM. With `COCn1c2ccc(OC(C)=O)cc2c2c(=O)oc(N(C)C)nc21`, the GI50 is inactive: > 100 µM. Regarding `Cc1c(C=C(C#N)C#N)c(=O)n(C)c(=O)n1C`, the GI50 was inactive: > 100 µM. Take `O=Cc1cc2sc(C=O)cc2s1`: the GI50 is inactive: > 100 µM.

`CSC12c3cc(C)n(-c4ccc([N+](=O)[O-])cc4)c3CC(C)(C)CN1C(=O)C2Oc1ccccc1` (centres undefined): the GI50 is inactive: 27.9 µM. Take `O=C(Nc1nc2ncn(CCNCCn3cnc4nc(NC(=O)c5ccccc5)[nH]c(=O)c43)c2c(=O)[nH]1)c1ccccc1`: the GI50 was inactive: > 100 µM. With `NC(=O)CN(CC(N)=O)C(N)=O`, the GI50 was inactive: > 100 µM.

In the case of `Cc1cc(NS(=O)(=O)c2ccc(NC(=O)c3cccc4c(=O)c5ccccc5[nH]c34)cc2)no1`, the GI50 was inactive: 23.1 µM.

Take `CC(C)=CC1C(COC(=O)c2ccccc2Cl)C1(C)C` (centres undefined): the GI50 was inactive: > 100 µM. In the case of `Cc1cc2c(C=O)n[nH]c2c(C#N)c1C`, the GI50 is inactive: > 100 µM. As to `CC1NOC(=O)C1/N=N/c1cccc(Cl)c1` (centres undefined), the GI50 was inactive: 90.4 µM. As for `COc1ccc(N2C(=O)/C(=C\c3ccccc3)SC2c2cc(OC)c(OC)c(OC)c2)cc1` (centres undefined), the GI50 was inactive: 50.8 µM.

For the compound `CC1CNC(c2ccc(CN3CCC(C4CCN(Cc5ccc(C6=NC(C)CN6)cc5)CC4)CC3)cc2)=N1` (centres undefined), the GI50 was inactive: 23.6 µM. As to `C=CCSc1nn(CC=C)cc2ncnc1-2`, the GI50 is inactive: > 100 µM.

Take `CCCCN/C(=N/C#N)NCc1ccccc1`: the GI50 is inactive: > 100 µM. For `C=C1CC(CN2CCC(=O)NC2=O)(c2ccccc2)OC1=O` (centres undefined), the GI50 was inactive: 16.4 µM.

Turning to `O=C1NI(C#Cc2ccccc2)c2ccccc21`, the GI50 is inactive: > 100 µM. Turning to `N#CC(NNC(=O)Cc1ccccc1)c1c(O)ccc2ccccc12` (centres undefined), the GI50 was inactive: 4.19 µM. For `[N-]=[N+]=NCC(O)Cn1cnc2c(NC(=O)c3ccccc3)ncnc21` (centres undefined), the GI50 was inactive: > 100 µM.

For `O=S(=O)(c1ccc(NC(=S)N/N=C/c2ccccc2O)cc1)N1CCCCC1`, the GI50 was active: < 0.0312 µM.

Take `CCOc1ccc(N/C(=C(/C(Cl)=C(/Cl)Nc2ccccc2)[N+](=O)[O-])n2nnc3ccccc32)cc1`: the GI50 was inactive: 25.7 µM.

As to `S=c1[nH]c(=S)c2cc(Sc3ccc4[nH]c(=S)[nH]c(=S)c4c3)ccc2[nH]1`, the GI50 was inactive: 47 µM. For `COC(=O)c1c(O)ccc2c1c1c(n2Cc2ccc(OC)cc2)C(=O)c2ccccc2C1=O`, the GI50 is inactive: 40.5 µM.

For `COc1ccc(C(Cc2ccccc2)C2NC(=S)NC2=O)cc1` (centres undefined), the GI50 was inactive: > 25 µM. On to `COC(=O)c1c(C#N)[nH]c(-c2ccsc2)c1C(=O)OC`, for which the GI50 was inactive: > 100 µM. With `COc1cc(Nc2nc3ccccc3nc2C(C)C)cc(OC)c1OC`, the GI50 is inactive: 84.9 µM. In the case of `O=C1CC2(CCC(O)(c3cccs3)C(C(=O)c3cccs3)C2)C(=O)c2ccccc2N1` (centres undefined), the GI50 is inactive: > 100 µM.

`O=C(/C=C/c1ccc(-c2ccccc2)cc1)c1ccccc1`: the GI50 is inactive: 31.5 µM. For `COc1ccc2cc(CNCCCCCCNC(=O)Nc3cccc4ccccc34)ccc2c1`, the GI50 was inactive: > 100 µM. Regarding `O=C(N/N=C/c1ccc([N+](=O)[O-])o1)c1ccc(C(=O)N/N=C/c2ccc([N+](=O)[O-])o2)cc1`, the GI50 is inactive: 57.3 µM. For the compound `CC12CCc3ccccc3C1=Nc1ccccc12` (centres undefined), the GI50 was inactive: 68.9 µM.

Turning to `CN(/N=C/c1ccc(C(=O)O)cc1)C1=NCCCCN1`, the GI50 is inactive: > 100 µM. Turning to `COC(=O)N/N=C(\C)c1c(O)cc(C)oc1=O`, the GI50 was inactive: > 100 µM. For `O=C1/C(=C/c2ccc(Cl)cc2)CCC1CNc1ccc(Cl)cc1` (centres undefined), the GI50 was inactive: 16 µM. The result for `CC(=O)Nc1ccccc1[S+]([O-])c1ccccc1` (centres undefined) reads inactive: > 100 µM. For the compound `c1ccc(-c2cc(-c3cc(-c4ccccc4)n(-c4ccccc4)n3)nn2-c2ccccc2)cc1`, the GI50 was inactive: > 100 µM. Consider `COc1ccc(C(=O)N(Cc2cccnc2)C(=S)N(Cc2cccnc2)C(=O)c2ccc(OC)cc2)cc1`, for which the GI50 is inactive: > 100 µM.

Turning to `O=C(Cc1csc(-c2nc(CC(=O)NNc3ccccc3)cs2)n1)NNc1ccccc1`, the GI50 was inactive: > 100 µM. For the compound `CC1NC(=O)CC(c2ccccc2)N(N=O)C1c1ccccc1` (centres undefined), the GI50 was inactive: 68.4 µM. The result for `Cc1ccc(Sc2ccccc2[N+](=O)[O-])cc1` reads inactive: 44.8 µM. For `Cc1cc(/N=C/c2ccc(F)cc2)n(-c2ccccc2)n1`, the GI50 was inactive: > 100 µM. With `Nc1nc(Cl)c2nnn(CC3CCC(CO)C3)c2n1` (centres undefined), the GI50 is inactive: > 100 µM. Regarding `COc1cccc2c1-c1ccccc1[C@H](Nc1ccccc1)[C@@]2(C)O`, the GI50 is inactive: 6.41 µM. The result for `O=C1CNS(=O)(=O)N1` reads inactive: > 100 µM; that for `O=C(CCC(=O)C1Cc2ccccc2C1=O)Nc1cccc(C(F)(F)F)c1` (centres undefined), inactive: > 100 µM. For `CC(C)NCCCC(C)Nc1ccnc2ccc3nn(C)nc3c12` (centres undefined), the GI50 was inactive: 40.6 µM.

Take `COC(=O)[C@H]1C2CC[C@@H]3C45C[C@@H](c6ccoc6)O[C@@H]4O[C@@H](O2)C31CCC5C` (some centres undefined): the GI50 was inactive: > 100 µM. With `Clc1ccc2nc(-c3ccccc3)nc(Cl)c2c1`, the GI50 was inactive: 57.1 µM. As to `CN(C)c1c(C2CC(O)C(CO)O2)c(=O)c1=O` (centres undefined), the GI50 is inactive: > 100 µM.

For the compound `N#C/N=C(\NCCc1c[nH]c2ccccc12)NCc1ccccc1`, the GI50 was inactive: > 100 µM. With `Cc1ccc(C)c(NC(=O)CC/C(=N\NC(=O)c2c(O)ccc3ccccc23)C(C)C(=O)c2ccc(O)cc2)c1` (centres undefined), the GI50 was inactive: 41.1 µM. In the case of `CCCCCCCCCCCCCCCCOCC(Cl)COP(=O)(O)OP(=O)(O)OCC1OC(n2cnc3c(N)ncnc32)C(O)C1O` (centres undefined) it was inactive: > 100 µM. For `Nc1cccc2cc(S(=O)(=O)Nc3ccc(C(=O)O)cc3)ccc12`, the GI50 is inactive: > 100 µM. Turning to `C=C[C@]1(O[Si](C)(C)C)C[C@@]2(C(=O)OCC)C(O)C(=O)N3CCc4cc(OC)c(OC)cc4[C@]312` (some centres undefined), the GI50 is inactive: > 100 µM. In the case of `O=C(Nc1ccccc1)c1cc2cc(CCl)ccc2oc1=O` it was inactive: > 100 µM. In the case of `C[N+](C)([O-])CCCNc1ccnc2cccc([N+](=O)[O-])c12` it was inactive: 46.6 µM.
